This is an account of results in patent US20230012428A1 (JIANGSU HENGRUI MEDICINE, published 2023).

To fix the notation:
B1: h1830-S15 (bispecific antibody, human IgG4 S228P, kappa)
heavy: QVQLQESGPGLVKPSQTLSLTCTVSGGSISDGSAYWSWIRQHPGKGLEYIGFISRAGSTYNTPSLKGRVTISRDTSKNQFSLKLSSVTAADTAVYYCARSGGWLAPFDYWGRGTLVTVSSASTKGPSVFPLAPCSRSTSESTAALGCLVKDYFPEPVTVSWNSGALTSGVHTFPAVLQSSGLYSLSSVVTVPSSSLGTKTYTCNVDHKPSNTKVDKRV[human IgG4 Fc with S228P (EU numbers) not given here]GGGGSGGGGSGGGGGGEEELQMIQPEKLLLVTVGETATLHCTVTSLLPVGPVLWFRGVGPGRELIYVSGRGHFPRVTTVSDLTKRENRDFSIRISSITPADVGTYYCVKFRKGSPEDVEFKSGPGTEMALGAKPS
light: DIVMTQSPDSLAVSLGERATINCKSSQSLFYHSNQKHSLAWYQQKPGQPPKLLIYGASTRESGVPDRFSGSGSGTDFTLTISSLQAEDVAVYYCQQYYGYPYTFGGGTKVEIKRTVAAPSVFIFPPSDEQLKSGTASVVCLLNNFYPREAKVQWKVDNALQSGNSQESVTEQDSKDSTYSLSSTLTLSKADYEKHKVYACEVTHQGLSSPVTKSFNRGEC
notes: h1830 IgG4 with SIRPγ variant S15, GS16 linker; also called PD-L1-CD47 bifunctional fusion protein
B2: h1830-S79 (bispecific antibody, human IgG4 S228P, kappa)
heavy: QVQLQESGPGLVKPSQTLSLTCTVSGGSISDGSAYWSWIRQHPGKGLEYIGFISRAGSTYNTPSLKGRVTISRDTSKNQFSLKLSSVTAADTAVYYCARSGGWLAPFDYWGRGTLVTVSSASTKGPSVFPLAPCSRSTSESTAALGCLVKDYFPEPVTVSWNSGALTSGVHTFPAVLQSSGLYSLSSVVTVPSSSLGTKTYTCNVDHKPSNTKVDKRV[human IgG4 Fc with S228P (EU numbers) not given here]GGGGSGGGGSGGGGGGEEELQMIQPEKLLLVTVGETATLHCTVTSLWPVGPVLWFRGVGPGRELIYRTGTGRFPRVTTVSDLTKRNNMDFSIRISSITPADVGTYYCVKFRKGSPEDVEFKSGPGTEVALGAKPS
light: B1 light
notes: h1830 IgG4 with SIRPγ variant S79, GS16 linker; also called PD-L1-CD47 bifunctional fusion protein
B3: h1830-S49 (bispecific antibody, human IgG4 S228P, kappa)
heavy: QVQLQESGPGLVKPSQTLSLTCTVSGGSISDGSAYWSWIRQHPGKGLEYIGFISRAGSTYNTPSLKGRVTISRDTSKNQFSLKLSSVTAADTAVYYCARSGGWLAPFDYWGRGTLVTVSSASTKGPSVFPLAPCSRSTSESTAALGCLVKDYFPEPVTVSWNSGALTSGVHTFPAVLQSSGLYSLSSVVTVPSSSLGTKTYTCNVDHKPSNTKVDKRV[human IgG4 Fc with S228P (EU numbers) not given here]GGGGSGGGGSGGGGGGEEELQMIQPEKLLLVTVGETATLHCTVTSLLPVGPVLWFRGVGPGRELIYRSGRGHFPRVTTVSDLTKRENKDFSIRISSITPADVGTYYCVKFRKGSPEDVEFKSGPGTEMALGAKPS
light: B1 light
notes: h1830 IgG4 with SIRPγ variant S49, GS16 linker
B4: h1830-S46 (bispecific antibody, human IgG4 S228P, kappa)
heavy: QVQLQESGPGLVKPSQTLSLTCTVSGGSISDGSAYWSWIRQHPGKGLEYIGFISRAGSTYNTPSLKGRVTISRDTSKNQFSLKLSSVTAADTAVYYCARSGGWLAPFDYWGRGTLVTVSSASTKGPSVFPLAPCSRSTSESTAALGCLVKDYFPEPVTVSWNSGALTSGVHTFPAVLQSSGLYSLSSVVTVPSSSLGTKTYTCNVDHKPSNTKVDKRV[human IgG4 Fc with S228P (EU numbers) not given here]GGGGSGGGGSGGGGGGEEELQMIQPEKLLLVTVGETATLHCTVTSLLPVGPVLWFRGVGPGRELIYMSGRGHFPRVTTVSDLTKRENKDFSIRISSITPADVGTYYCVKFRKGSPEDVEFKSGPGTEMALGAKPS
light: B1 light
notes: h1830 IgG4 with SIRPγ variant S46, GS16 linker
B5: h1830-S48 (bispecific antibody, human IgG4 S228P, kappa)
heavy: QVQLQESGPGLVKPSQTLSLTCTVSGGSISDGSAYWSWIRQHPGKGLEYIGFISRAGSTYNTPSLKGRVTISRDTSKNQFSLKLSSVTAADTAVYYCARSGGWLAPFDYWGRGTLVTVSSASTKGPSVFPLAPCSRSTSESTAALGCLVKDYFPEPVTVSWNSGALTSGVHTFPAVLQSSGLYSLSSVVTVPSSSLGTKTYTCNVDHKPSNTKVDKRV[human IgG4 Fc with S228P (EU numbers) not given here]GGGGSGGGGSGGGGGGEEELQMIQPEKLLLVTVGETATLHCTVTSLLPVGPVLWFRGVGPGRELIYRSGRGHFPRVTTVSDLTKRNNKDFSIRISSITPADVGTYYCVKFRKGSPEDVEFKSGPGTEMALGAKPS
light: B1 light
notes: h1830 IgG4 with SIRPγ variant S48, GS16 linker
B6: h1830-S47 (bispecific antibody, human IgG4 S228P, kappa)
heavy: QVQLQESGPGLVKPSQTLSLTCTVSGGSISDGSAYWSWIRQHPGKGLEYIGFISRAGSTYNTPSLKGRVTISRDTSKNQFSLKLSSVTAADTAVYYCARSGGWLAPFDYWGRGTLVTVSSASTKGPSVFPLAPCSRSTSESTAALGCLVKDYFPEPVTVSWNSGALTSGVHTFPAVLQSSGLYSLSSVVTVPSSSLGTKTYTCNVDHKPSNTKVDKRV[human IgG4 Fc with S228P (EU numbers) not given here]GGGGSGGGGSGGGGGGEEELQMIQPEKLLLVTVGETATLHCTVTSLLPVGPVLWFRGVGPGRELIYMSGRGHFPRVTTVSDLTKRENKDFSIRISSITPADVGTYYCVKFRKGSPEDVEFKSGPGTEVALGAKPS
light: B1 light
notes: h1830 IgG4 with SIRPγ variant S47, GS16 linker

For orientation: IC50 means the concentration that gives 50% inhibition. A higher IC50 goes with a need for much substance. As a reminder, the Kd is the constant that tells how readily two partners part at equilibrium. Low values mean higher affinity, high ones lower affinity. Broadly, the EC50 is the midpoint of the concentration-response curve. Higher therefore signals lower potency in that assay.

T4 sequence (Q9EP73 19-238 limits assumed): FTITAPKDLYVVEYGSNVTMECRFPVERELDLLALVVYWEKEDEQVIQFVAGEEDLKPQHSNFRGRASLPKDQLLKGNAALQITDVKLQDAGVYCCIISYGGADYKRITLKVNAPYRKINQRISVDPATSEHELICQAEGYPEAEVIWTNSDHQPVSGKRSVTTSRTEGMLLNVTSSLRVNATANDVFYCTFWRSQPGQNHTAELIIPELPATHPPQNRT
T6 sequence (G7PSE7 entry or part of it): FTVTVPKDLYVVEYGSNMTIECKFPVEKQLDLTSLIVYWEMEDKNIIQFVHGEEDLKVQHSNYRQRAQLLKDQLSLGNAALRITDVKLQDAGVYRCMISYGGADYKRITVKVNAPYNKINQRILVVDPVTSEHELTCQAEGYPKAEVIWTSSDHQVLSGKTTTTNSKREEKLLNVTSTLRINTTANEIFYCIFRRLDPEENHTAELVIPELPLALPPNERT
T2 sequence (Q9NZQ7 19-239 limits assumed): as the sequence (G7PSE7 entry or part of it) above, with T33A, S34A, N62S, Q68R, R82Q, L173F, A185T, I192T, L215H counted along it

One assay has as its target T1, PD-L1-Fc (prepared in-house) (human, UniProt Q9NZQ7 fragment, limits assumed).
T1 construct: Prepared in-house; also called human PD-L1-Fc; not shown: Fc
Briefly: blocking ELISA, PD-L1-Fc coated, competitor biotin-labeled B7-1. (In general: In an ELISA, binding on a coated surface is turned into a signal by an enzyme label.)
Take B1: the IC50 stood at 0.0555 µg/mL.

In another assay the target is T2, hPD-L1-His (human, UniProt Q9NZQ7 fragment).
T2 construct: Bought; also called Human PD-L1-his; Human PD-L1; not shown: His tag
Put plainly: SPR (Biacore T200), binder captured on Protein A chip, antigen in flow.
As to B1, the Kd is 0.38 nM.
As for B2, the dissociation constant (Kd) stood at 0.425 nM.

The target of another assay is T3, Human CD47-his (CD47-ECD-His) (human, UniProt Q08722 fragment, limits assumed).
T3 construct: also called hCD47; free human CD47 protein
Described as above.
On to B1, for which binding was put at a Kd of 4.11 nM.
On the same count and under the same terms, in the case of B2 it was 4.06 nM.

Another assay has as its target T4, mPD-L1 (mouse, UniProt Q9EP73 fragment).
T4 construct: Bought; also called Mouse PD-L1-his; Mouse PD-L1
The description is as above.
Take B1: the affinity, expressed as Kd, was 78.8 nM.
Same read-out and setting: next, B2: 77.5 nM.

A further assay addresses T5, Cyno CD47-his (cyno, UniProt A0A2K5X523 19-139).
T5 construct: extracellular domain; not shown: His tag
The description is as above.
Regarding B1, the Kd worked out at 4.78 nM.
Same read-out and setting: next, B2: 4.9 nM.

The target of another assay is T6, Cyno PD-L1-His (cyno, UniProt G7PSE7 19-239).
T6 construct: Bought; not shown: His tag
The assay is described as above.
As to B1, the Kd amounted to 0.496 nM.
As for B2, the Kd was found to be 0.455 nM.

The target in a further assay is T1, PD-L1-Fc (prepared in-house). Put plainly: blocking ELISA, PD-L1-Fc coated, competitor biotin-labeled PD-1.
T1 sequence (Q9NZQ7 19-238 limits assumed): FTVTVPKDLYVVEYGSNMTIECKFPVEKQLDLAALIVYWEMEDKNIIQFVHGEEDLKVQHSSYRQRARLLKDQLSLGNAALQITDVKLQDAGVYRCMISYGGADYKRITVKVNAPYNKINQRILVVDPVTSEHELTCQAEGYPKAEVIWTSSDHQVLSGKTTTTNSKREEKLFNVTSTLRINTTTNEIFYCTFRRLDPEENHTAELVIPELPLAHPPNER
On to B1, for which the IC50 came to 0.0471 µg/mL.

The next assay deals with T3, Human CD47-his (CD47-ECD-His). Briefly: ELISA, CD47-his coated on plate.
T3 sequence (Q08722 19-139 limits assumed): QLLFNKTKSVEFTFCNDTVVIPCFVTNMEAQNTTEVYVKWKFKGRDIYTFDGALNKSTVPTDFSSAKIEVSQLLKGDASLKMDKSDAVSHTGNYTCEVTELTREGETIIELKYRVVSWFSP
In turn, B1 displayed an EC50 of 0.0641 µg/mL.

A further assay concerns the target T5, Cyno CD47-his. Briefly: ELISA, CD47-his coated on plate.
B1 returned an EC50 of 0.0723 µg/mL.

The next assay addresses T2, hPD-L1-His. Briefly: ELISA, PD-L1-his coated on plate.
On to B1, for which the EC50 came to 0.128 µg/mL.

A further assay concerns the target T4, mPD-L1. Briefly: ELISA, PD-L1-his coated on plate.
Molecule B1 came in with an EC50 of 0.0386 µg/mL.

The next assay has as its target T6, Cyno PD-L1-His. Briefly: ELISA, PD-L1-his coated on plate.
As for B1, the midpoint of the response, the EC50, lay at 0.232 µg/mL.

For a further assay, the target named is T3, Human CD47-his (CD47-ECD-His). Briefly: SPR (Biacore T200), binder captured on Protein A chip, antigen in flow. This is another data set of the same source. (In general: Surface plasmon resonance follows binding to a sensor surface in real time, without labels.)
B3 registered a Kd of 3.09 nM.
Same read-out and setting: in the case of B4 it was 1.77 nM; in that of B5, 2.49 nM; in that of B6, 1.94 nM.
